45 molecules from article PMC4336329 (PLoS ONE, 2015) can be followed below.

The structures appear in SMILES notation. Screen size: about 310,000 compounds; about 14,000 (4.5%) showed an effect of 50% or more. Effects have a minus sign here. This is one part of the list.
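Note: peak tail current of the secondary pulse compared with the same well before compound.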

In the assay the target is human ether-à-go-go-related gene (hERG) potassium channel (human, UniProt Q12809). The assay is described as follows: primary screen, population patch clamp on CHO cells stably expressing hERG.
human ether-à-go-go-related gene (hERG) potassium channel, sequence (Q12809 whole entry, looked up): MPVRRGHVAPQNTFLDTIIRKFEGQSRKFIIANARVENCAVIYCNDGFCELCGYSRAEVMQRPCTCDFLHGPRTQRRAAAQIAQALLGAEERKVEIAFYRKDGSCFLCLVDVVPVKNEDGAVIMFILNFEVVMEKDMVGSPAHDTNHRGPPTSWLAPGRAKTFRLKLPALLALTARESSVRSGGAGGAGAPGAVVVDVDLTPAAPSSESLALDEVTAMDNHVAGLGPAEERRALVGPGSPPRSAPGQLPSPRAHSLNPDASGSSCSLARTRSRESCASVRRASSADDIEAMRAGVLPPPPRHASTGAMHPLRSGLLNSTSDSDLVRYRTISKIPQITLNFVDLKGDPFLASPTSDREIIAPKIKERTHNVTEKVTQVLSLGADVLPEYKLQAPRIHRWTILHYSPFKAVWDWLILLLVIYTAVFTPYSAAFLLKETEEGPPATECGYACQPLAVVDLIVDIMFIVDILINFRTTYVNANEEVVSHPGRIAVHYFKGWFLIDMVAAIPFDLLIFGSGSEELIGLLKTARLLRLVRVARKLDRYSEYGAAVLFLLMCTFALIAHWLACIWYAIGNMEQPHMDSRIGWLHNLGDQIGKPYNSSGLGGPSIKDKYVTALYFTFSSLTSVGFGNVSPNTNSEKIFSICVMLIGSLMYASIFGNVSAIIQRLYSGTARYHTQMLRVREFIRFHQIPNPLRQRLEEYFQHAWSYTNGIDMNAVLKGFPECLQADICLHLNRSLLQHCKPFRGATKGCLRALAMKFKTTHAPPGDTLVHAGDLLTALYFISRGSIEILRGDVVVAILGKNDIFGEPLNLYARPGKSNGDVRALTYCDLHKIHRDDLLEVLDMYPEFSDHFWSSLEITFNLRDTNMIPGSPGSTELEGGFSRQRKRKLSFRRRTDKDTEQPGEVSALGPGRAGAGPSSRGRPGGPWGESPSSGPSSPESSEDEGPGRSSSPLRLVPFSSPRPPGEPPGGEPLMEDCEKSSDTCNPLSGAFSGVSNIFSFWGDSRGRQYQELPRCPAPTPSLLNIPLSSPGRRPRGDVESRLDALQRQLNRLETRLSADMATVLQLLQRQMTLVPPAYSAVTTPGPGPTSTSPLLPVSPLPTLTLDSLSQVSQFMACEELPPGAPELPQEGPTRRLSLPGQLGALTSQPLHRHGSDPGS
Regarding `COc1ccccc1C(C#N)N1N=C(C)CC1(C)C` (stereo not drawn), the “hERG current change (%, negative = inhibition) at 10uM” value came out at 7.5%.

Regarding `CCOc1ccc(N=NC2C(=O)N(C(N)=S)N=C2C)cc1` (stereo not drawn), the “hERG current change (%, negative = inhibition) at 10uM” value is reported as 17.7%.

For the molecule `Nc1nc(CN2CCN(C(=O)c3ccco3)CC2)nc(Nc2cccc(Cl)c2)n1`, the “hERG current change (%, negative = inhibition) at 10uM” value was -78.6%.

As to `CC1CCCN(CCC(=O)Nc2ccc3c(c2)CCC3)C1.Cl` (stereo not drawn), the “hERG current change (%, negative = inhibition) at 10uM” value is listed as -33.5%.

Turning to `Cc1nc(NC(=O)c2ccc(Cl)cc2)sc1Cc1ccc2c(c1)OCO2`, the “hERG current change (%, negative = inhibition) at 10uM” value stood at 24.3%.

With `CCN1C(=O)NC(c2cc(Br)ccc2OC)C(C(=O)OC)=C1C` (stereo not drawn), the “hERG current change (%, negative = inhibition) at 10uM” value was -10.2%.

Regarding `CCOn1c(=O)c(-c2ccccc2)[n+]([O-])c2ccccc21`, the “hERG current change (%, negative = inhibition) at 10uM” value is 1.67%.

Turning to `CCC(Cc1ccccc1)NC(=O)CCNS(=O)(=O)c1cc(Br)cnc1N` (stereo not drawn), the “hERG current change (%, negative = inhibition) at 10uM” value is reported as -6.53%.

Consider `CCN(Cc1ccccc1)C(=O)c1oc2ccc(C)cc2c1C`, for which the “hERG current change (%, negative = inhibition) at 10uM” value is 8.98%.

Turning to `Cc1cc(C)cc(NC(=O)c2cc(S(=O)(=O)N3CCCC3)cn2C)c1`, the “hERG current change (%, negative = inhibition) at 10uM” value is on record as -4.82%.

Consider `c1ccc(-n2c(Cc3cn4ccsc4n3)nnc2N2CCOCC2)cc1`, for which the “hERG current change (%, negative = inhibition) at 10uM” value is recorded as -0.0304%.

As for `Cc1ccc(Cl)cc1N1CCN(S(=O)(=O)c2ccc3[nH]c(=O)ccc3c2)CC1`, the “hERG current change (%, negative = inhibition) at 10uM” value is recorded as 7.74%.

`CCCCCCCNC(=O)C1(CC2CC(c3cccc(Br)c3)=NO2)CCN(C(=O)C2(C)CC2)CC1` (stereo not drawn): the “hERG current change (%, negative = inhibition) at 10uM” value is -26%.

In the case of `Cc1cc2oc(=O)cc(Cn3ccnc3)c2cc1C`, the “hERG current change (%, negative = inhibition) at 10uM” value came out at 4.08%.

For the molecule `Cc1ccc(NC(=O)c2scc3c2CCCC3)cc1`, the “hERG current change (%, negative = inhibition) at 10uM” value was determined as 3.11%.

For `COc1ccc(OC)c(NC(=O)c2cc(S(=O)(=O)N3CCCC3)cn2C)c1`, the “hERG current change (%, negative = inhibition) at 10uM” value is listed as -42.8%.

Regarding `COC(=O)c1ccc2c(=O)n(-c3ccc(OC)cc3)c(=S)[nH]c2c1`, the “hERG current change (%, negative = inhibition) at 10uM” value is 18.1%.

For the molecule `CNC(=O)COc1ncnc2sc(C)c(C)c12`, the “hERG current change (%, negative = inhibition) at 10uM” value is given as 1.11%.

For `FC(F)(F)c1ccccc1-n1c(-c2cnccn2)n[nH]c1=S`, the “hERG current change (%, negative = inhibition) at 10uM” value came out at 13%.

Regarding `O=C(COC(=O)COc1ccccc1)NC1CCCC1`, the “hERG current change (%, negative = inhibition) at 10uM” value is 10.5%.

With `Cc1ccc(C(=O)OCN2C(=O)c3ccccc3C2=O)cc1S(=O)(=O)N1CCOCC1`, the “hERG current change (%, negative = inhibition) at 10uM” value is recorded as -10.6%.

For the molecule `COc1ccc(CC(=O)Nc2ccc(-c3cn4ccc(C)cc4n3)cc2)cc1`, the “hERG current change (%, negative = inhibition) at 10uM” value is listed as -0.263%.

For the molecule `O=C(Nc1ccc(S(=O)(=O)N2CCOCC2)cc1)c1cccc([N+](=O)[O-])c1`, the “hERG current change (%, negative = inhibition) at 10uM” value was determined as 14.7%.

Take `O=C(NC(=O)N1CCCCC1)c1ccccc1`: the “hERG current change (%, negative = inhibition) at 10uM” value stood at 10.7%.

As to `Cc1cccc(NC(=O)CCOc2ccccc2)c1`, the “hERG current change (%, negative = inhibition) at 10uM” value came to 5.5%.

For the molecule `CC(C)C1Oc2ccccc2N(CC(=O)NC2CCCCC2)C1=O` (stereo not drawn), the “hERG current change (%, negative = inhibition) at 10uM” value was -1.11%.

As to `COc1cccc(N=Cc2nc(-c3ccccc3)oc2OC(C)=O)c1`, the “hERG current change (%, negative = inhibition) at 10uM” value is -13.3%.

Turning to `N/C(=N\OC(=O)c1ccc(Cl)c(Cl)c1)c1ccccn1`, the “hERG current change (%, negative = inhibition) at 10uM” value stood at 3.76%.

As to `CCC(c1nnnn1C1CCCC1)N1CCN(c2ccccc2F)CC1` (stereo not drawn), the “hERG current change (%, negative = inhibition) at 10uM” value is -14.2%.

For `O=C(CCN1C(=O)/C(=C/c2cccs2)SC1=S)Nc1ccc(C(=O)O)cc1`, the “hERG current change (%, negative = inhibition) at 10uM” value is 5.49%.

Consider `COc1ccc(S(=O)(=O)N(CCCN2CCOCC2)Cc2cccc3ccccc23)cc1`, for which the “hERG current change (%, negative = inhibition) at 10uM” value is listed as -48.6%.

As to `O=C(CSc1nnnn1-c1ccc(O)cc1)c1ccc(F)cc1`, the “hERG current change (%, negative = inhibition) at 10uM” value is -5.76%.

In the case of `Cc1ccc(C(=O)N/C(=C\c2ccccc2F)c2nc(=S)[nH][nH]2)cc1`, the “hERG current change (%, negative = inhibition) at 10uM” value came to 14.4%.

As to `CCc1cccc(C)c1NC(=S)N1CCCCC1c1cccnc1` (stereo not drawn), the “hERG current change (%, negative = inhibition) at 10uM” value is given as -8.54%.

Consider `N=c1n(CCOc2ccccc2)c2ccccc2n1CCN1CCOCC1`, for which the “hERG current change (%, negative = inhibition) at 10uM” value is on record as -42.9%.

For the molecule `NC(=O)c1ccccc1N`, the “hERG current change (%, negative = inhibition) at 10uM” value was 12.4%.

Turning to `CC1=C(C(=O)OCc2ccccc2)C(c2ccc(Cl)cc2Cl)NC(=O)N1CCCC(=O)O` (stereo not drawn), the “hERG current change (%, negative = inhibition) at 10uM” value was 1.31%.

With `O=C(Nc1nnc(C2CC2)s1)C1COc2ccccc2O1` (stereo not drawn), the “hERG current change (%, negative = inhibition) at 10uM” value came out at 23.7%.

Regarding `COc1ccc(OCc2nnc(NC(=O)Nc3ccccc3F)s2)cc1`, the “hERG current change (%, negative = inhibition) at 10uM” value was -2.13%.

As to `CC(=O)c1cc(C(c2csc(C(C)=O)c2)c2csc(C(C)=O)c2)cs1`, the “hERG current change (%, negative = inhibition) at 10uM” value is given as -72.6%.

Consider `Cc1nc(CCN2C(=O)c3ccccc3C2=O)n[nH]1`, for which the “hERG current change (%, negative = inhibition) at 10uM” value was found to be 0.341%.

With `Cc1cc(N/N=C/c2ccc(F)cc2)nc(NCc2ccccc2)n1`, the “hERG current change (%, negative = inhibition) at 10uM” value is given as -64.2%.

As for `CC(C)[C@@H](C(=O)NCc1ccco1)N1C(=O)N2CCc3c([nH]c4ccccc34)[C@@]2(C)C1=O`, the “hERG current change (%, negative = inhibition) at 10uM” value is listed as -15.6%.

On to `COc1ccccc1CNC(=O)[C@H](NC(=O)C1CCN(C(=O)[C@@H](N)CCSC)CC1)C(C)C`, for which the “hERG current change (%, negative = inhibition) at 10uM” value is -1.58%.

For `CCc1ccc(NC(=O)CSc2nnc(COc3ccc4c(c3)CCCC4)o2)cc1`, the “hERG current change (%, negative = inhibition) at 10uM” value is recorded as -9.57%.
